The RNAGym collection of RNA variant scans (doi:10.7554/elife.90254)
The source gives no read counts; variants with many changes may rest on few reads.

B1: LINE1-mini (parent)
chain: GGCAGAGCUCAACACAGCGUGGCAAAGUGGCUGUGGCUAGACUGCC

Variants of: B1
Assay: self-cleavage, relative activity (ratio to wild type); higher = more cleavage; in vitro, sequencing; the parent is a self-cleaving ribozyme

Variant | self-cleavage
C3U G29A C31A | 0.15
C3U G29A C37U C45U | 0.14
C3U G29A G30A G33U | 0.14
C3U G29A U38G | 0.03
C3U G29U U38G | 0.03
C3U G30C C46G | 0.24
C3U G33A C45G | 0.11
C3U G33C G40C | 0.04
C3U G35C C46U | 0.02
C3U G35U A39U | 0.24
C3U G35U G40A | 0.11
C3U G36A G44C | 0.15
C3U U9A A12C | 0.04
C3U U9A A14U C18A U20A C31A | 0.04
C3U U9A A25G U34G | 0.15
C3U U9A A39U A41G | 0.1
C3U U9A C10G G27U G36C | 0.01
C3U U9A C13U G21A G30C C37G U38A C46A | 0.5
C3U U9A U20G A41U | 0.02
C3U U9C A14U U34C | 0.02
C3U U9G A11C G22U U32G | 0
C3U U9G A14C U20C G30A G33A G40A | 0.03
C3U U9G A24G G30U G36U A39U C45U | 0.43
C3U U9G G19C G40A C46G | 0.02

Variant | self-cleavage
C3U U9G G35A C37G | 0.27
C3U U9G U20A G22A C37G G40A | 0.08
C3U U9G U38G | 0.15
C3U U20A G29U C31U U32A C42G | 0.02
C3U U20A G30C | 0.17
C3U U20C A24G G29A | 0.44
C3U U20C C46U | 0.12
C3U U20G C42A | 0.06
C3U U20G C42U | 0.03
C3U U20G G22C U28C C31U C46U | 0.14
C3U U20G U28G G40C | 0
C3U U28A C31U A39G | 0.06
C3U U28A G29U C31U G33C U34A | 0.05
C3U U28A U34G C42G | 0.02
C3U U28C A41G | 0.06
C3U U28C C45G | 0.05
C3U U28G G33U U43A | 0.01
C3U U28G U38C | 0.43
C3U U32C U38C | 0.15
A4C A6C A41C | 0
A4C A6C G27A C45U | 0.04
A4C A6C U9G | 0.05
A4C A6G A11G U38A | 0.01
A4C A6G A12G C31A G36U C37U | 0.08

Variant | self-cleavage
A4C A6G C10A C31G | 0.07
A4C A6G C10U C13U A26C G36C | 0.02
A4C A6G U20G U34C G36C | 0.05
A4C A6U C10A C15A G19C A25U C37U | 0.02
A4C A6U G7C C15U | 0.08
A4C A6U G29A | 0.04
A4C A11C A14G U32A | 0.09
A4C A11C C15U C31G G36C A39G G44C | 0
A4C A11C G30U | 0.03
A4C A11G A12C A25C G33A C45A | 0
A4C A11G G17U C18A G33U C45A | 0.01
A4C A11G G21A A24U G33U | 0
A4C A11U A12C A39U | 0.02
A4C A11U C13G U28G G30U C31U G33U | 0.01
A4C A11U C15A | 0.07
A4C A11U C23A A41G U43G | 0.01
A4C A12C A14G | 0.02
A4C A12C G33C | 0
A4C A12G C42U C46U | 0.02
A4C A12G G21A | 0.08
A4C A12G G40U | 0.38
A4C A12U C13A G19U G44C | 0.03
A4C A12U C13U A26G | 0.03
A4C A12U C15G A39U | 0.04

Variant | self-cleavage
A4C A12U U32G G44A | 0.12
A4C A14C G33C | 0.07
A4C A14U A16C C23A A24U U32A C37U | 0.08
A4C A14U A24C A26U | 0.05
A4C A14U G27A | 0.07
A4C A14U G27C G33U | 0.02
A4C A16C G21A | 0.07
A4C A16C G22A C37U A41C G44U | 0.1
A4C A16C G22U A26U A39U U43G C46G | 0.15
A4C A16C G22U G40C | 0.02
A4C A16C G33U G40U G44A | 0.12
A4C A24C G33C | 0
A4C A24C U38G | 0.02
A4C A24U A25G G30C C45U | 0.11
A4C A24U A39G U43C C45G | 0
A4C A25C A26U G33U | 0.05
A4C A25C C31G | 0.04
A4C A25C G27U G29U C45G | 0.01
A4C A25U G33U U38C | 0.08
A4C A26U G33U | 0.13
A4C A39G C45U | 0.06
A4C A41U C45G | 0.29
A4C C8A C10A A11C A25U | 0.08
A4C C8A G17U G21A | 0.24

Variant | self-cleavage
A4C C8A G29C G40A | 0.07
A4C C8A G40A | 0.05
A4C C8A U9A G35U C45A | 0.31
A4C C8G A39G | 0.01
A4C C8G G17A G40C C45G | 0.06
A4C C8U A11G C18G G27U U32A | 0.01
A4C C8U A14G | 0.04
A4C C8U A24C G33U G36C | 0.01
A4C C8U C15G | 0.23
A4C C8U G17U | 0.36
A4C C8U G35U | 0.05
A4C C10A A12U G30U | 0
A4C C10A A14C A39U | 0.01
A4C C10A A14U | 0
A4C C10A C13G | 0.02
A4C C10A C15U G19C | 0.17
A4C C10A U20A A26G | 0.02
A4C C10A U20C G22U | 0.02
A4C C10G A12G U34A A41C C42U | 0.03
A4C C10G A14U G19A | 0.02
A4C C10G C18A G33A U43C C45G | 0
A4C C10G G19A U20G G29C G44U | 0.01
A4C C10G G30C | 0.03
A4C C10U C18G A41U U43C | 0.03

Variant | self-cleavage
A4C C10U G29C C45A | 0.02
A4C C13A C31U | 0.17
A4C C13A G19A A25U | 0.03
A4C C13A U28C G40U | 0.85
A4C C13G U20C C37G | 0.02
A4C C15A C18G G27C U38G | 0.07
A4C C15A G33C | 0
A4C C15U A25G G44C | 0.11
A4C C18A A39C C46U | 0.03
A4C C18A G36C | 0.02
A4C C18G G27C C31A U38G | 0.06
A4C C18G U28A G44C C45U | 0.02
A4C C18U C46A | 0.12
A4C C18U G19U G22A | 0.06
A4C C18U G27U U38A U43A | 0.15
A4C C23A C31U | 0.01
A4C C23A C31U C46G | 0.1
A4C C23A G35C G44U | 0.3
A4C C23A G36A G44U | 0.35
A4C C23A U32A U34C | 0.08
A4C C23U A25C C45U | 0.12
A4C C23U C31A A39C | 0.01
A4C C23U G30U C31U U38A G44A | 0
A4C C23U G44A | 0.23

Variant | self-cleavage
A4C C31G C45U | 0.02
A4C C31U A39G A41U | 0.01
A4C C31U C45G | 0.03
A4C C37A C42G | 0
A4C C37A U38C G44A | 0.23
A4C C37A U43G G44U | 0.24
A4C C37G G44A | 0.06
A4C G5A A12G A14G G30U C46A | 0.08
A4C G5A A24G C31A | 0.03
A4C G5A C8U | 0.26
A4C G5A C13A G19A G29C | 0.1
A4C G5A C15A | 0.05
A4C G5A G7A A14G C23U G27U C45A | 0.73
A4C G5C A12U C31U G40C | 0.05
A4C G5C A16U G27C C45A | 0.08
A4C G5C C8G C15G A16C G29A | 0.04
A4C G5C C18G C23U | 0.01
A4C G5C G21U G30A G33U U38C | 0.38
A4C G5C G30U | 0.03
A4C G5C U9A A26C | 0.09
A4C G5U A12U A16G | 0.1
A4C G5U A16G U34A G40U A41C | 0.03
A4C G5U A24U C45G | 0.14
